Measured values published in the supplement of paper PMC11125491.
± gives the standard deviation of the averaged measurements. Growth of baker's yeast expressing single-residue variants of Pneumocystis jirovecii dihydrofolate reductase in 8.8 or 44 µM methotrexate (about 75% and 90% inhibition of the wild type). Selection coefficient per generation; 0 = like wild type, above 0 = less sensitive, below 0 = more sensitive or loss of function. No active / inactive call per row; the paper calls resistant above 0.220 (8.8 µM) or 0.243 (44 µM) together with a significance test. At 44 µM about 15% of codons end with one read or none, so the lowest values are floors (replicate rank correlation 0.74; 0.94 at 8.8 µM).

B1: UniProt A0EPZ9; numbered along this chain (parent)
chain: MDWQKSLTLIVALTLSRGIGLKNDLPWKLKSDMMFFSRVTSGLLVTRSTGQMNVVLMGRKTWESLPAHSRPLKNRINVVISRQEVLDLGGGAYHARSLDDALALLSQIYDSTSKIQLNRVFVIGGGELCKAAMEHSRLNRIIATVIHNEVDCDVFFPIDFRSSQSCLPWRKQDHSVLEAWVGSKVPQGKINENGFIYEFEMWIRDI

Variants of: B1
Assay: selection coefficient against synonymous wild-type codons (log2 per generation); higher = faster growth than wild type
Details: with Saccharomyces cerevisiae carrying the variant on a plasmid
Experimental: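 Pooled growth of yeast carrying single-residue variants of P. jirovecii dihydrofolate reductase (own DFR1 gene intact), two passages at 30 °C, three cultures, sequenced before and after. Codons with under 15 starting reads are left out; codons of one change are averaged.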

| Variant | selection coefficient against synonymous wild-type codons (log2) (methotrexate 8.8 µM) | selection coefficient against synonymous wild-type codons (log2) (methotrexate 44 µM) |
| --- | --- | --- |
| MDWQKSLTLIVALTLSRGIGLKNDLPWKLKSDMMFFSRVTSGLLVTRSTGQMNVVLMGRKTWESLPAHSRPLKNRINVVISRQEVLDLGGGAYHARSLDDALALLSQIYDSTSKIQLNRVFVIGGGELCKAAMEHSRLNRIIATVIHNEVDCDVFFPIDFRSSQSCLPWRKQDHSVLEAHVGSKVPQGKINENGFIYEFEMWIRDI [W180H] | 0.205 ± 0.081 | 0.0925 ± 0.16 |
| MDWQKSLTLIVALTLSRGIGLKNDLPWKLKSDMMFFSRVTSGLLVTRSTGQMNVVLMGRKTWESLPAHSRPLKNRINVVISRQEVLDLGGGAYHARSLDDALALLSQIYDSTSKIQLNRVFVIGGGELCKAAMEHSRLNRIIATVIHNEVDCDVFFPIDFRSSQSCLPWRKQDHSVLEAIVGSKVPQGKINENGFIYEFEMWIRDI [W180I] | 0.00369 ± 0.0057 | -0.0176 ± 0.1 |
| MDWQKSLTLIVALTLSRGIGLKNDLPWKLKSDMMFFSRVTSGLLVTRSTGQMNVVLMGRKTWESLPAHSRPLKNRINVVISRQEVLDLGGGAYHARSLDDALALLSQIYDSTSKIQLNRVFVIGGGELCKAAMEHSRLNRIIATVIHNEVDCDVFFPIDFRSSQSCLPWRKQDHSVLEAKVGSKVPQGKINENGFIYEFEMWIRDI [W180K] | -0.223 ± 0.034 | -0.118 ± 0.0097 |
| MDWQKSLTLIVALTLSRGIGLKNDLPWKLKSDMMFFSRVTSGLLVTRSTGQMNVVLMGRKTWESLPAHSRPLKNRINVVISRQEVLDLGGGAYHARSLDDALALLSQIYDSTSKIQLNRVFVIGGGELCKAAMEHSRLNRIIATVIHNEVDCDVFFPIDFRSSQSCLPWRKQDHSVLEALVGSKVPQGKINENGFIYEFEMWIRDI [W180L] | 0.0674 ± 0.061 | -0.0186 ± 0.13 |
| MDWQKSLTLIVALTLSRGIGLKNDLPWKLKSDMMFFSRVTSGLLVTRSTGQMNVVLMGRKTWESLPAHSRPLKNRINVVISRQEVLDLGGGAYHARSLDDALALLSQIYDSTSKIQLNRVFVIGGGELCKAAMEHSRLNRIIATVIHNEVDCDVFFPIDFRSSQSCLPWRKQDHSVLEAMVGSKVPQGKINENGFIYEFEMWIRDI [W180M] | 0.0502 ± 0.01 | -0.0392 ± 0.14 |
| MDWQKSLTLIVALTLSRGIGLKNDLPWKLKSDMMFFSRVTSGLLVTRSTGQMNVVLMGRKTWESLPAHSRPLKNRINVVISRQEVLDLGGGAYHARSLDDALALLSQIYDSTSKIQLNRVFVIGGGELCKAAMEHSRLNRIIATVIHNEVDCDVFFPIDFRSSQSCLPWRKQDHSVLEANVGSKVPQGKINENGFIYEFEMWIRDI [W180N] | 0.102 ± 0.061 | -0.0348 ± 0.17 |
| MDWQKSLTLIVALTLSRGIGLKNDLPWKLKSDMMFFSRVTSGLLVTRSTGQMNVVLMGRKTWESLPAHSRPLKNRINVVISRQEVLDLGGGAYHARSLDDALALLSQIYDSTSKIQLNRVFVIGGGELCKAAMEHSRLNRIIATVIHNEVDCDVFFPIDFRSSQSCLPWRKQDHSVLEAPVGSKVPQGKINENGFIYEFEMWIRDI [W180P] | -0.579 ± 0.18 | -0.285 ± 0.11 |
| MDWQKSLTLIVALTLSRGIGLKNDLPWKLKSDMMFFSRVTSGLLVTRSTGQMNVVLMGRKTWESLPAHSRPLKNRINVVISRQEVLDLGGGAYHARSLDDALALLSQIYDSTSKIQLNRVFVIGGGELCKAAMEHSRLNRIIATVIHNEVDCDVFFPIDFRSSQSCLPWRKQDHSVLEAQVGSKVPQGKINENGFIYEFEMWIRDI [W180Q] | 0.128 ± 0.074 | 0.0634 ± 0.035 |
| MDWQKSLTLIVALTLSRGIGLKNDLPWKLKSDMMFFSRVTSGLLVTRSTGQMNVVLMGRKTWESLPAHSRPLKNRINVVISRQEVLDLGGGAYHARSLDDALALLSQIYDSTSKIQLNRVFVIGGGELCKAAMEHSRLNRIIATVIHNEVDCDVFFPIDFRSSQSCLPWRKQDHSVLEARVGSKVPQGKINENGFIYEFEMWIRDI [W180R] | -0.267 ± 0.1 | -0.169 ± 0.13 |
| MDWQKSLTLIVALTLSRGIGLKNDLPWKLKSDMMFFSRVTSGLLVTRSTGQMNVVLMGRKTWESLPAHSRPLKNRINVVISRQEVLDLGGGAYHARSLDDALALLSQIYDSTSKIQLNRVFVIGGGELCKAAMEHSRLNRIIATVIHNEVDCDVFFPIDFRSSQSCLPWRKQDHSVLEASVGSKVPQGKINENGFIYEFEMWIRDI [W180S] | 0.14 ± 0.055 | 0.0733 ± 0.046 |
| MDWQKSLTLIVALTLSRGIGLKNDLPWKLKSDMMFFSRVTSGLLVTRSTGQMNVVLMGRKTWESLPAHSRPLKNRINVVISRQEVLDLGGGAYHARSLDDALALLSQIYDSTSKIQLNRVFVIGGGELCKAAMEHSRLNRIIATVIHNEVDCDVFFPIDFRSSQSCLPWRKQDHSVLEATVGSKVPQGKINENGFIYEFEMWIRDI [W180T] | 0.168 ± 0.04 | 0.1 ± 0.062 |
| MDWQKSLTLIVALTLSRGIGLKNDLPWKLKSDMMFFSRVTSGLLVTRSTGQMNVVLMGRKTWESLPAHSRPLKNRINVVISRQEVLDLGGGAYHARSLDDALALLSQIYDSTSKIQLNRVFVIGGGELCKAAMEHSRLNRIIATVIHNEVDCDVFFPIDFRSSQSCLPWRKQDHSVLEAVVGSKVPQGKINENGFIYEFEMWIRDI [W180V] | 0.0806 ± 0.07 | -0.08 ± 0.051 |
| MDWQKSLTLIVALTLSRGIGLKNDLPWKLKSDMMFFSRVTSGLLVTRSTGQMNVVLMGRKTWESLPAHSRPLKNRINVVISRQEVLDLGGGAYHARSLDDALALLSQIYDSTSKIQLNRVFVIGGGELCKAAMEHSRLNRIIATVIHNEVDCDVFFPIDFRSSQSCLPWRKQDHSVLEAYVGSKVPQGKINENGFIYEFEMWIRDI [W180Y] | 0.106 ± 0.038 | 0.00799 ± 0.045 |
| MDWQKSLTLIVALTLSRGIGLKNDLPWKLKSDMMFFSRVTSGLLVTRSTGQMNVVLMGRKTWESLPAHSRPLKNRINVVISRQEVLDLGGGAYHARSLDDALALLSQIYDSTSKIQLNRVFVIGGGELCKAAMEHSRLNRIIATVIHNEVDCDVFFPIDFRSSQSCLPWRKQDHSVLEAWAGSKVPQGKINENGFIYEFEMWIRDI [V181A] | 0.0672 ± 0.054 | -0.0195 ± 0.064 |
| MDWQKSLTLIVALTLSRGIGLKNDLPWKLKSDMMFFSRVTSGLLVTRSTGQMNVVLMGRKTWESLPAHSRPLKNRINVVISRQEVLDLGGGAYHARSLDDALALLSQIYDSTSKIQLNRVFVIGGGELCKAAMEHSRLNRIIATVIHNEVDCDVFFPIDFRSSQSCLPWRKQDHSVLEAWCGSKVPQGKINENGFIYEFEMWIRDI [V181C] | -0.0414 ± 0.056 | -0.174 ± 0.18 |
